Consider 42 compounds from ChEMBL document CHEMBL4888484, “Replenishing the malaria drug discovery pipeline: Screening and hit evaluation of the MMV Hit Generation Library 1 (HGL1) against asexual blood stage Plasmodium falciparum ,using a nano luciferase reporter read-out” (2022).

As usually defined, the % Inhibition is the change of the read-out against control, counted positive when it falls.

The campaign covered roughly 150,000 compounds. About 540 (0.36%) showed an effect of 50% or more. The list shows a part of the results.

In this test the test system is Plasmodium falciparum. Put plainly: Primary screen in NF54 nanoGlo assay, in single point, at 2uM, 72h; a lower Z score goes with more inhibition. Format: functional, Erythrocyte. The conditions noted are these: timepoint 72 hour.
As to `O=C(COc1ccc(-n2cccn2)nn1)Nc1cc(F)ccc1F`, the “% Inhibition” value is -2% and the Z score amounted to 0.36.
The like results for `Cc1nnc([C@H]2CN(C(=O)c3cccnc3)CC23CCN(C(=O)c2cccnc2)CC3)o1` were, in that order, -12% and 1.8.
Regarding `N#Cc1c(F)cccc1N[C@@H]1C[C@H]1CO`, the “% Inhibition” value is -2% and the Z score is 0.45.
On the same counts, the results for `COCCc1nc(Cn2cnc(-c3ccccc3)c2-c2cccnc2)no1` are 2% and -0.26.
On to `NC(=O)[C@H]1CCCN(C(=O)c2ccc(NC(=O)c3cccs3)cc2)C1`, for which the “% Inhibition” value is given as -25% and the Z score was 4.62.
The like results for `CCC(=O)Nc1ccc2c(c1)C(N1CCOCC1)=Nc1ccccc1O2` were, in that order, -10% and 1.26.
The like results for `CO[C@@H](CNS(C)(=O)=O)c1ccccc1Cl` were, in that order, 12% and -1.57.
As to `O=c1ccc(N2CCN(S(=O)(=O)c3cccc4nsnc34)CC2)nn1-c1ccc(Cl)cc1`, the “% Inhibition” value was found to be 12% and the Z score is recorded as -1.44.
`CCn1ncnc1CNC[C@H]1CC1(CC)CC`: the “% Inhibition” value is reported as -2% and the Z score was 0.47.
On the same counts, the results for `C[C@@H](C(=O)NCCCn1cc(Cl)cn1)n1cnnn1` are -10% and 1.83.
For `Cc1cc(F)ccc1-c1ccc(C(=O)N2CCO[C@@H](CC(=O)O)C2)cc1F`, the “% Inhibition” value was determined as 12% and the Z score is listed as -1.46.
On the same counts, the results for `Cc1ccc(C(=O)NC2CCN(c3ccc(-c4cccc(F)c4)nn3)CC2)cn1` are 15% and -1.74.
As for `O=S(=O)(C1CCOCC1)N1CCC2(CCCC2)CC1`, the “% Inhibition” value was -2% and the Z score is 0.31.
On the same counts, the results for `CC(C)CCN1C[C@]23C=C[C@H](O2)C(C(=O)N2CCNC(=O)CC2)C3C1=O` (some centres undefined) are -7% and 1.34.
On the same counts, the results for `CCOc1cccc(CNC(=O)c2cnc(N3CCC4(CC3)OCCO4)nc2N)c1` are -5% and 0.62.
The like results for `O=C(Nc1nccs1)c1cnsn1` were, in that order, -5% and 0.58.
Take `O=C(NC1CCCCC1)c1coc(CN2CCN(Cc3cccc(F)c3F)CC2)n1`: the “% Inhibition” value is given as -13% and the Z score came to 2.18.
As to `COc1ccc(N2CCN(C(=O)CCn3nc(C)c(S(=O)(=O)N4CCCC4)c3C)CC2)cc1`, the “% Inhibition” value is -7% and the Z score came out at 1.31.
The like results for `CCCOC(=O)c1cnc2nc(C)ccc2c1Nc1ccc(C)cc1O` were, in that order, 3% and -0.39.
On the same counts, the results for `Cc1cccc(C)c1NC(=O)NCCc1nc2cccnc2n1C1CCCC1` are -10% and 1.35.
As for `O=C(NC1CC=CC1)C1(C(=O)NC2CC=CC2)CCC1`, the “% Inhibition” value is reported as -1% and the Z score worked out at 0.11.
On the same counts, the results for `Cc1c(Cl)cccc1NC(=O)C1CCN(c2cc(C3CC3)ncn2)CC1` are 0% and -0.08.
The like results for `CCN(CC)[C@H](CNC(=O)c1ccccc1Br)CC(C)C` were, in that order, 4% and -0.6.
`O=S(=O)(N1CCOCC1)N1CC(c2ccccc2)C(c2ncon2)C1` (centres undefined): the “% Inhibition” value is -11% and the Z score is recorded as 2.16.
The like results for `Cc1cc(C)c2c(c1)[C@H]1OCCC[C@H]1C(c1ccc(Cl)cc1)N2` (some centres undefined) were, in that order, -15% and 2.46.
As to `CCC(C)(C)c1nnc(N2CCC(OC)CC2)o1`, the “% Inhibition” value is recorded as -3% and the Z score is 0.29.
As for `Cn1nccc1C(=O)NC[C@H]1CCc2ccccc2O1`, the “% Inhibition” value was -13% and the Z score is 2.48.
On to `Cc1cc(NC(=O)C2CCC2)n(-c2ccc(C(F)(F)F)cn2)n1`, for which the “% Inhibition” value is -6% and the Z score was determined as 0.78.
The like results for `COc1ncccc1CN1c2ccccc2N(C2CCC2)S1(=O)=O` were, in that order, -15% and 1.54.
Turning to `Cc1ccc(F)c(-n2cc(O)c(C(=O)NCc3nnc(C)n3C3CC3)n2)c1`, the “% Inhibition” value is reported as -4% and the Z score is 0.43.
With `O=C1CN(Cc2ccns2)[C@H](c2ccccc2)CN1`, the “% Inhibition” value is given as 9% and the Z score is given as -0.78.
The like results for `COc1ccccc1CCNCc1c(C(=O)O)c(C)n(-c2ccc(C)cc2)c1C` were, in that order, -3% and 0.5.
The like results for `O=C(CN1CCC[C@H]1C(=O)O)Nc1ccccc1C(F)(F)F` were, in that order, -2% and 0.29.
On the same counts, the results for `COc1ccc(NC(=O)CCN2CCC[C@H]2c2ncc[nH]2)cc1` are -5% and 0.84.
Regarding `CCN1C[C@H](CN(C)C(=O)c2ccc(F)c(F)c2)Oc2ccccc21`, the “% Inhibition” value was -7% and the Z score was 0.67.
As for `Cc1ccc(S(=O)(=O)N2CCN(C(=O)CCc3c(C)nn(C)c3C)CC2)cc1`, the “% Inhibition” value was -3% and the Z score was found to be 0.39.
With `CC(=O)N(CCC(=O)N(CCC#N)CC(C)(C)C)Cc1ccccc1`, the “% Inhibition” value is -5% and the Z score was 0.72.
On the same counts, the results for `Cc1cc([C@@H](C#N)C(=O)Nc2ccc(Cl)c(Cl)c2)nc(C)n1` are -9% and 1.07.
Consider `O=C1NC(=O)C2(CCN(C(=O)c3cc(C4CC4)[nH]n3)CC2)N1`, for which the “% Inhibition” value is given as -2% and the Z score was 0.36.
`Cc1ccc(C(=O)c2ccccc2C(=O)NCc2nncn2C)cc1C`: the “% Inhibition” value is -3% and the Z score is 0.52.
On the same counts, the results for `CCOC(=O)CN[C@H]1CCCOCC1` are -7% and 0.92.
Consider `CN1CCN(c2nc3c(c(Oc4cccc(F)c4)n2)CN(C(=O)c2ccc(F)cc2F)CC3)CC1`, for which the “% Inhibition” value is given as -5% and the Z score was determined as 0.64.
